Hit rate of the full screen: of about 410,000 compounds, about 5,000 (1.2%) were called active. The inconclusive results got no clear call from the source; some entries with a clear call stand among them for comparison. Calls come from the whole dose curve; as a rule, active = well fitted inhibition curve with a large enough effect; inconclusive = small, poorly fitted or top-dose-only effect; inactive = no such curve, though single readings can be large or run the other way. Potencies beside an inconclusive call are fits to weak or partial responses and may not hold up.
Assay: qHTS for Inhibitors of TGF-b; note: nearly all actives have a fitted effect of over 65% in size
Details: HepG2 CAGA-GFP TGF-b/SMAD3 reporter, GFP fluorescence, 18 h, TGF-beta stimulated, 500 pg/mL final; series mostly up to 46.1 µM; activity, negative = inhibition: at the top concentration
Procedure, shortened: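 Smad-responsive CAGA-GFP expression was quantified in HEPG2 cells exposed to compounds and 500 pg/mL final TGF-beta for 18 h at 37 degrees C; unstimulated wells defined full inhibition.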
% is set by controls: 0 for no effect and ±100 for the full control effect; potency is the fitted concentration of half-maximal effect; tags give direction and shape of the fitted curve.

SMILES	activity, negative = inhibition	Potency
CCCCN1C(=O)CN(C2CCCCCC2)C(=O)C1c1ccc(OC(C)C)c(OC)c1 (centres undefined)	inactive: -21.3%	–
COc1ccccc1-c1ccc2c(c1)C(C)(Cc1ccc(OC(F)(F)F)cc1)C(=O)N2 (centres undefined)	–	inconclusive: 35.5 µM [inhibitor, single point]
O=C(NCCCn1ccnc1)c1cc(-c2ccc3c(c2)OCO3)on1	–	inconclusive: 15.8 µM [inhibitor, partial curve]
Cc1ccc(S[C@@H](CCN2CC[C@H](C)CCC2=O)c2ccccc2)cc1	–	inconclusive: 35.5 µM [inhibitor, single point]
CCc1nc2c(OCCOc3ccc(F)cc3)cccn2c1N(C)C(=O)c1ccco1	–	inconclusive: 14.1 µM [inhibitor, single point]
CC(NC(=O)CN1C(=O)NC2(CCCCCCC2)C1=O)c1ccccc1 (centres undefined)	–	inconclusive: 0.251 µM [inhibitor, full curve, poor fit]
O=C1CN(C(=O)C2CCCC2)CCN1	–	inconclusive: 1.26 µM [inhibitor, partial curve]
Cc1ccc(CNC(=O)c2oc3ccc(S(=O)(=O)N4CCC(C)CC4)cc3c2C)cc1	–	inconclusive: 1 µM [inhibitor, full curve, poor fit]
Cc1nc2cc3c(cc2c(C)c1C(=O)OC(C)C)OCO3	–	inconclusive: 5.62 µM [inhibitor, full curve, poor fit]
NC(=S)N/N=C1\CCOc2ccc(Cl)cc21	–	active: 8.91 µM
O=C(Nc1ncc(S(=O)(=O)c2ccc([N+](=O)[O-])cc2)s1)c1cccc2ccccc12	–	inconclusive: 2.82 µM [inhibitor, partial curve, poor fit]
CCn1c(SCC(=O)c2ccc(O)c(O)c2)nnc1-c1ccc(C)cc1	–	inconclusive: 11.2 µM [inhibitor, single point]
CC(C)(CNC(=O)CNC(=O)c1ccccc1F)N1CCOCC1	inactive: -5.34%	–
Cc1ccc(NS(=O)(=O)c2cccc(C(=O)NC3CCN(Cc4ccccc4)CC3)c2)c(C)c1	–	inconclusive: 35.5 µM [inhibitor, single point]
CC(OC(=O)c1ccc(=O)n(Cc2ccccc2)n1)C(=O)Nc1cccc(Cl)c1 (centres undefined)	inactive: -7.93%	–
O=[N+]([O-])c1ccc(NCCCc2ccccc2)cc1	–	inconclusive: 22.4 µM [inhibitor, single point]
CC1(C(=O)NCc2cccc3ccccc23)CCN1Cc1ccccc1OC(F)F (centres undefined)	–	inconclusive: 14.1 µM [inhibitor, single point]
CC(C#N)(Nc1ccc(Cl)cc1)c1cccnc1 (centres undefined)	inactive: -12.6%	–
O=C(N=C1SC2CS(=O)(=O)CC2N1Cc1ccc(F)cc1)C1CCCO1 (centres undefined)	inactive: -17.8%	–
